± gives the standard deviation of the averaged measurements. The full ranking holds about 4,100 sequences; the median of “relative kcat/Km (krel) vs genomic leader AAAGAU” is about 1.7, and the highest 2% start at about 6.5. The entries are a selection whose mix differs from that of the whole data set.
Biological target: T1, E. coli RNase P holoenzyme (M1 P RNA + rnpA protein) (UniProt P0A7Y8)
T1 sequence: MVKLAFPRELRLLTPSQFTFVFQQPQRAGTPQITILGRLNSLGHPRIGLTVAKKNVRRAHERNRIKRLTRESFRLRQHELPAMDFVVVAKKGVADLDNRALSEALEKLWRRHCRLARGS
Experiment: relative kcat/Km (krel) vs genomic leader AAAGAU (relative (reference leader = 1)); higher = faster RNase P cleavage
How it was run: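 Relative kcat/Km (krel) values came from internal competition kinetics on sequencing read ratios, normalised to the genomic leader and averaged over two technical replicates. A precursor tRNA-Met pool with randomized leader positions −6 to −1 was cleaved by E. coli RNase P holoenzyme (P RNA plus C5 protein) under multiple-turnover conditions at 37 °C. The buffer held 50 mM Tris-HCl pH 8, 100 mM NaCl and 17.5 mM MgCl2, and unreacted precursor was gel-purified at ~5–30% conversion, made into cDNA libraries and Illumina-sequenced.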

[1] = fraction of substrate reacted: ~9-10% (9.79% repeat 1, 9.1% repeat 2)
[2] = fraction of substrate reacted: ~13-16% (15.68% repeat 1, 13.17% repeat 2)
[3] = fraction of substrate reacted: ~26-29% (28.66% repeat 1, 26.4% repeat 2)

Row | Sequence | relative kcat/Km [1] | relative kcat/Km [2] | relative kcat/Km [3]
1 | ACGTTA | 1.52 ± 0.066 | 1.95 ± 0.14 | 2.64 ± 1.2
2 | GGGGTG | 0.214 ± 0.043 | – | 0.488 ± 0.095
3 | CATAGG | 0.483 ± 0.39 | – | 0.858 ± 0.12
4 | CCTCGC | 2.01 ± 0.37 | 2.32 ± 0.72 | 3.1 ± 1.1
5 | GTATGC | 2.2 ± 0.71 | 2.59 ± 0.35 | 3.64 ± 0.93
6 | AAGATA | 2.68 ± 1.4 | 1.3 ± 0.082 | 1.73 ± 0.3
7 | ATAATA | 1.54 ± 0.73 | 1.65 ± 0.35 | 2.19 ± 1.1
8 | TCTGTG | 0.301 ± 0.18 | – | 1.15 ± 0.22
9 | GCGGCT | 0.25 ± 0.031 | – | –
10 | CGCACT | 1.79 ± 0.22 | 1.78 ± 0.54 | 3.04 ± 1.6
11 | GTGAAG | 1.41 ± 0.83 | 1.04 ± 0.34 | 1.91 ± 0.62
12 | AGAAGG | – | – | 0.852 ± 0.022
13 | GCACGA | 0.937 ± 0.69 | – | 1.03 ± 0.068
14 | TTCCCG | – | 1.89 ± 0.23 | 3.15 ± 0.58
15 | ACTTGT | 0.499 ± 0.1 | – | 1.89 ± 1.8
16 | AGACAG | – | 0.766 ± 0.5 | 2.07 ± 0.14
17 | GGTATA | 0.789 ± 0.27 | 1.08 ± 0.098 | 1.46 ± 0.89
18 | TCCGGG | – | 0.232 ± 0.093 | 0.936 ± 0.57
19 | CCCGAC | 3.83 ± 0.31 | 4.41 ± 0.51 | 6.49 ± 2.3
20 | GAGTCC | 1.33 ± 0.69 | 1.51 ± 0.091 | 2.45 ± 0.75
21 | GTACTT | 2.05 ± 0.35 | 2.49 ± 0.45 | 3 ± 1.2
22 | TATGAC | 2.5 ± 0.71 | 3.46 ± 0.18 | 5.65 ± 2.8
23 | GGAGGA | – | 1.36 ± 0.53 | 1.57 ± 1
24 | ATTGCT | 0.546 ± 0.2 | 0.554 ± 0.29 | 0.93 ± 0.35
25 | AGCCAC | 3.06 ± 0.9 | 3.5 ± 0.98 | 4.97 ± 1.8
26 | CTACAA | 1.7 ± 0.25 | 2.44 ± 0.77 | 3.29 ± 1.6

Row | Sequence | relative kcat/Km [1] | relative kcat/Km [2] | relative kcat/Km [3]
27 | GGCGTT | – | 0.792 ± 0.15 | 1.12 ± 0.49
28 | AGTCAT | 3.31 ± 1.6 | 5 ± 1.1 | 6.79 ± 3.2
29 | GCCCCA | 2.31 ± 0.65 | 1.87 ± 0.068 | 2.85 ± 0.93
30 | CGAATT | 1.72 ± 0.48 | 2.27 ± 0.76 | 2.43 ± 1.1
31 | ATGGAC | – | 0.764 ± 0.61 | 0.869 ± 0.56
32 | TGGCTT | 0.632 ± 0.3 | 1.43 ± 0.2 | 1.28 ± 1.2
33 | ACCATT | 2.5 ± 1.4 | 2.84 ± 0.28 | 4.27 ± 1.3
34 | GAGTTT | 1.6 ± 0.65 | 1.28 ± 0.17 | 2.05 ± 0.46
35 | TCGTTA | 2.56 ± 0.7 | 2.65 ± 0.66 | 3.9 ± 1.4
36 | CAAGTA | 1.01 ± 0.55 | 1.16 ± 0.49 | 1.44 ± 0.79
37 | CAATAC | 2.65 ± 0.75 | 4.12 ± 0.85 | 5.19 ± 2.1
38 | AACTGT | 0.625 ± 0.14 | 0.97 ± 0.59 | 0.608 ± 0.51
39 | ACTCGA | 1.74 ± 0.93 | 2.54 ± 1.1 | 3.65 ± 2
40 | GGTACG | 0.17 ± 0.045 | 0.269 ± 0.21 | 0.942 ± 0.29
41 | AGGGTG | – | – | 0.781 ± 0.46
42 | AAGGCC | 1.03 ± 0.69 | 0.769 ± 0.38 | 0.617 ± 0.19
43 | AAATAC | 3.07 ± 1.1 | 3.56 ± 0.56 | 4 ± 1.8
44 | GGGTCT | 1.04 ± 0.47 | 1.13 ± 0.23 | 1.37 ± 0.76
45 | CGCAGG | 0.668 ± 0.38 | – | 0.94 ± 0.17
46 | CGAAAA | 2.58 ± 0.86 | 2.7 ± 0.77 | 3.14 ± 0.49
47 | GCAAAA | 1.46 ± 0.48 | 1.01 ± 0.16 | 1.62 ± 0.085
48 | AACTAG | 3.36 ± 2.5 | 2.8 ± 0.61 | 3.95 ± 1.3
49 | GTGAGC | 1.37 ± 0.77 | – | 0.899 ± 0.22
50 | GAAAGC | 0.551 ± 0.55 | 1.1 ± 0.23 | 1.65 ± 0.33
51 | CGACAA | 2.26 ± 0.23 | 2.76 ± 0.51 | 3.75 ± 1.6
